Values joined by “and” are separate entries in the source; they are usually repeats but may differ in a detail not shown here. Identical values can stand only once. Out of some 150,000 compounds screened, about 180 (0.12%) were called active. Inconclusive results, whose numbers are uncertain, are shown with a selection of clear calls. Calls come from the whole dose curve; as a rule, active = well fitted cell-killing curve with a large enough effect; inconclusive = small, poorly fitted or top-dose-only effect, or effect the other way; inactive = flat fitted curve, though single readings scatter. Potencies beside an inconclusive call are fits to weak or partial responses and may not hold up.
Assay: GF-AFC viability counterscreen for inhibitors of alpha-synuclein gene (SNCA) expression; note: nearly all actives have a fitted effect of over 30% in size;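 for activity change, negative = cytotoxicity: 0% = DMSO-treated cells and -100% = medium-only wells without cells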
Details: HEK-293-SNCA-luc viability, GF-AFC fluorescence, 24 h; activity change, negative = cytotoxicity: at 57.1 µM (top of the series) unless noted
Summary of the method: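 Cytotoxicity counterscreen: after 24 h compound treatment of genome-edited SNCA-luciferase HEK-293 cells, live-cell protease substrate GF-AFC read by fluorescence after 30 min; activity scaled between DMSO (0%) and medium-only (-100%), curves Hill-fitted.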
For CCC(c1cccs1)N1C(=O)[C@H]2CN(C(=O)NC)C[C@H]2C1=O (stereo not given in full), the Potency was inconclusive: 31.6 µM [rising, single point]. With O=C(Nc1ccccc1C(F)(F)F)n1ncc2cc(Cl)ccc21 the “activity change, negative = cytotoxicity” value was inactive: -2.4%. With CN1CCOc2c(C(=O)NCc3cccnc3)cc(-c3ccc(CO)cc3)cc21 the “activity change, negative = cytotoxicity” value was inactive: -11.9% [at 87.6 µM]. For CCOC(=O)c1c(NC(=O)c2nc(S(C)(=O)=O)ncc2Cl)sc(C(C)=O)c1C, the Potency was inconclusive: 28.2 µM [cytotoxic, single point]. For COc1ccc(-c2noc(CC3CCN(C(=O)Cc4ccccc4Cl)CC3)n2)cc1, the Potency was inconclusive: 31.6 µM [cytotoxic, single point]. In the case of COc1ccc(C(=O)NCC(c2ccc3c(c2)OCO3)N2CCN(c3ccccc3F)CC2)cc1 (stereo not given), the Potency is reported as inconclusive: 7.08 µM [cytotoxic, partial curve, poor fit]. For COc1cccc(N2C(=O)NC(=NC3CCCC3)C23CCN(Cc2ccccc2)C3)c1 (stereo not given), the Potency was inconclusive: 14.1 µM [cytotoxic, partial curve, poor fit]. For C#CCNC(=O)C1CCN(c2nccc(Nc3ccc(OC)cc3)n2)CC1, the activity change, negative = cytotoxicity was inactive: -13.7% [at 12.5 µM]. In the case of O=C(CNC(=O)c1ccc(-c2cnc3ccccc3c2)cc1)NC1CCCCCC1, the Potency is reported as inconclusive: 22.4 µM [cytotoxic, single point]. For COc1ccc(-c2nc(CSCC(=O)N3CCN(c4ccc(F)cc4)CC3)c(C)o2)cc1, the Potency was inconclusive: 7.94 µM [cytotoxic, partial curve, poor fit]. For CCCN1CCC(N2CCC3(CC2)CC(C(=O)N2CCOCC2)N(C)C3)CC1 (stereo not given), the “activity change, negative = cytotoxicity” value was inactive: 0.533%. In the case of O=C(c1cccc(Cl)c1)N1CCc2nc(-c3ccc(Cl)cc3)nc(-c3ccccc3)c2C1, the “activity change, negative = cytotoxicity” value is reported as inactive: 5.41%. With O=C1N(c2ccccc2)c2ccccc2C12CCN(Cc1cccc3ccccc13)C2 (stereo not given) the “activity change, negative = cytotoxicity” value was inactive: 0.751%. With O[C@H]1[C@H](NCc2cnc3ccccc3c2)[C@@H](c2cccnc2)C[C@H]1O the Potency was inconclusive: 10 µM [cytotoxic, full curve]. With Cc1coc2c1C(=O)C(=O)c1c-2ccc2c(C)cccc12 the Potency was inconclusive: 0.377 µM [cytotoxic, full curve, poor fit]. For CCOC(=O)C1CCN(C(=O)c2nc3sccn3c2-c2ccc(F)cc2)CC1, the Potency was inconclusive: 14.1 µM [cytotoxic, partial curve]. For COc1ccccc1OC(C)C(=O)Nc1cccc(-c2nc3ccccc3o2)c1 (stereo not given), the Potency was inconclusive: 10 µM [rising, partial curve, poor fit]. With Cc1ccc(NC(=O)c2cnn3c2NC(c2ccccc2)=CC3c2ccccc2)cc1 (stereo not given) the Potency was inconclusive: 28.2 µM [rising, single point]. For COc1ccc(-c2cc3c(C)nc(N)nc3n(C3CCC(OCCO)CC3)c2=O)cn1 (stereo not given), the Potency was inconclusive: 136 nM [cytotoxic, full curve, poor fit] and inconclusive: 238 nM [cytotoxic, full curve]. In the case of CC(C)NC(=O)C1CCC(=O)N1C1CCN(C(=O)Cc2ccc(Cl)cc2)CC1 (stereo not given), the “activity change, negative = cytotoxicity” value is reported as inactive: -3.77%. With O=C(CCCc1nc(-c2ccncc2)no1)N1CCCC2(CCNCC2)CC1 the “activity change, negative = cytotoxicity” value was inactive: -6.62%. In the case of CN(C)Cc1ccc(-c2nc3cccc4c3n2CCNC4=O)cc1, the Potency is reported as inconclusive: 21.5 µM [cytotoxic, partial curve, poor fit]. For CCCN(CCC)S(=O)(=O)c1ccc(C(=O)Nc2sc3c(c2C(=O)OC)CCN(CC)C3)cc1, the Potency was inconclusive: 15.8 µM [rising, partial curve, poor fit]. For C#CCNC(=O)C1CCN(c2nccc(Nc3ccccc3Cl)n2)CC1, the activity change, negative = cytotoxicity was inactive: 4.39% [at 12.5 µM]. For O=C(Nc1cccc(C(F)(F)F)c1)C1CCCN1S(=O)(=O)c1cccc2nsnc12 (stereo not given), the Potency was inconclusive: 10 µM [cytotoxic, partial curve, poor fit]. In the case of COc1cccc(-c2cccc(CN3CCCC3C(=O)NCc3cccc(F)c3)c2)c1 (stereo not given), the Potency is reported as inconclusive: 10 µM [cytotoxic, partial curve, poor fit]. With O=C(/C=C\n1cnc(-c2cc(C(F)(F)F)cc(C(F)(F)F)c2)n1)NNc1cnccn1 the Potency was inconclusive: 10.8 µM [cytotoxic, partial curve, poor fit]. With CCCN(CC1CCOC1)C(=O)NCc1ccco1 (stereo not given) the “activity change, negative = cytotoxicity” value was inactive: -1.71%. In the case of CC(=O)Nc1ccc(S(=O)(=O)N[C@H]2CO[C@H]3[C@@H]2OC[C@H]3OC(=O)Nc2ccc(Oc3ccccc3)cc2)cc1, the “activity change, negative = cytotoxicity” value is reported as inactive: -13.1%. With COC(=O)CNC(=O)C1CCCCN1Cc1ccc(-c2ccsc2)cc1 (stereo not given) the “activity change, negative = cytotoxicity” value was inactive: -3.29%. With COc1ccc(-c2cc3c(=O)n(CCNC(=O)c4cccc(N(C)C)c4)ccn3n2)cc1 the Potency was inconclusive: 25.1 µM [cytotoxic, partial curve, poor fit]. In the case of Cc1ccc2c(c1)c(=O)c(C(=O)c1ccc3c(c1)OCO3)cn2Cc1ccc(Cl)cc1, the Potency is reported as inconclusive: 6.31 µM [cytotoxic, partial curve]. For c1ccc(CN2CCNc3cnc(-c4ccc(N5CCOCC5)cc4)cc3C2)cc1, the Potency was inconclusive: 56.2 µM [cytotoxic, single point]. In the case of Cc1cc(Cn2cc3c4c(cccc42)[C@H](CC(C)C)N[C@H](C(=O)NCC2CC2)C3)no1, the Potency is reported as inconclusive: 25.1 µM [cytotoxic, single point]. In the case of CCc1ccc(-n2c(=O)c3c4c(sc3n(CC(=O)N3CCC(C)CC3)c2=O)CCC4)cc1, the Potency is reported as inconclusive: 31.6 µM [cytotoxic, single point]. For COC(=O)c1ccc(CNC(=O)CC2c3cccnc3C(=O)N2c2c(Cl)cccc2Cl)cc1 (stereo not given), the “activity change, negative = cytotoxicity” value was inactive: -3.9% [at 23.9 µM]. With COc1ccc(NC(=O)N2CCCC3(CCN(S(=O)(=O)c4ccccc4)CC3)C2)cc1 the Potency was inconclusive: 12.6 µM [cytotoxic, partial curve, poor fit]. With COC(=O)[C@@H]1[C@H]2C[C@H]3c4[nH]c5ccccc5c4CCN3C[C@@H]2CC[C@@H]1O the Potency was “inactive”. With Cc1ncoc1C(=O)N1CCC(c2noc(-c3ccncc3)n2)C1 (stereo not given) the “activity change, negative = cytotoxicity” value was inactive: 1.83%. For C=CCNC(=O)CCc1c(C)nn(-c2ccc(F)cc2)c1Oc1cccc(F)c1, the Potency was inconclusive: 12.6 µM [cytotoxic, partial curve, poor fit].

Reference: PubChem BioAssay AID1671193 (National Center for Advancing Translational Sciences (NCATS), 2021)
Potency is the fitted concentration of half-maximal effect; tags give direction and shape of the fitted curve.
